Test results as given in PubChem BioAssay AID1645887 (National Center for Advancing Translational Sciences (NCATS), 2021).
Several values for one entry are separate records, joined by “and”; a condition that tells them apart may be missing. Identical values can stand only once. Hit rate of the full screen: of about 16,000 compounds, about 40 (0.2%) were called active. Another 1% or so got no clear call; they are omitted. Calls follow the shape of the dose curve; as a rule, active = well fitted activation curve with a large enough effect; inconclusive = small, poorly fitted or top-dose-only effect, or another doubt; inactive = no such curve, though single readings can be large or run the other way. The list shows a part of the results.

biological target: Rap guanine nucleotide exchange factor 4 (Homo sapiens) (UniProt Q8WZA2); test: Validation qHTS for agonist of cAMP-regulated guanine nucleotide exchange factor 4 (EPAC2); settings: EPAC2 Rap1B BODIPY-GDP exchange, fluorescence; activation: stronger effect = higher value;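 also: exchange makes BODIPY-GDP fluorescence drop when released from Rap1B; series mostly up to about 150 µM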
UniProt Q8WZA2, sequence (Q8WZA2 whole entry, looked up): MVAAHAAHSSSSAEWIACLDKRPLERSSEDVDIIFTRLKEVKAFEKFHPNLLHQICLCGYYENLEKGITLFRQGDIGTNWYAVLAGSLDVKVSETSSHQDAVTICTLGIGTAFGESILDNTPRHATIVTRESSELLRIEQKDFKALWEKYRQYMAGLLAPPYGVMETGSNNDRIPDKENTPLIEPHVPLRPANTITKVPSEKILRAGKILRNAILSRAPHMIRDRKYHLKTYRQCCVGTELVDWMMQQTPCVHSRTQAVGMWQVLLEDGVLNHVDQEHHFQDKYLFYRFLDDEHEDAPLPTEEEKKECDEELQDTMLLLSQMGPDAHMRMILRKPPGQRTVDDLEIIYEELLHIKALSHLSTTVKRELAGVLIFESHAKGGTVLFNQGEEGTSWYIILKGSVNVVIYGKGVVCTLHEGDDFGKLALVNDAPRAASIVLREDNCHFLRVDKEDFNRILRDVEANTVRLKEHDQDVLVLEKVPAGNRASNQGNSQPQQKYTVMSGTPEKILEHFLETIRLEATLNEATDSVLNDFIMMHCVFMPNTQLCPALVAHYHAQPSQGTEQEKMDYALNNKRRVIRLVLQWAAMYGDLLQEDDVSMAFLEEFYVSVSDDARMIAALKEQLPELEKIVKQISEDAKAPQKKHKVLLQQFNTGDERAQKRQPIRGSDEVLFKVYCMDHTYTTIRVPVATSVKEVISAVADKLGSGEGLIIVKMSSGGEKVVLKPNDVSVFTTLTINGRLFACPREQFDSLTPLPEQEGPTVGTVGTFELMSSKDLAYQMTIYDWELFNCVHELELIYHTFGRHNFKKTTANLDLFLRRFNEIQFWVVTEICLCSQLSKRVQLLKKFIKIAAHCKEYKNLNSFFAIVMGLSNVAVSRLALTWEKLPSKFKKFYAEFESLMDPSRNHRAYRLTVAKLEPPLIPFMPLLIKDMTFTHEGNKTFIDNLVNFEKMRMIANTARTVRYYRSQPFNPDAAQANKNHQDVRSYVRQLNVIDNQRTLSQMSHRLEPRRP
Excerpt: Principle Investigator: Xiaodong Cheng Ph.D.
The University of Texas Medical Branch, […], TX
In multi-cellular eukaryotic organisms, the effects of cAMP are transduced by two ubiquitously-expressed intracellular cAMP receptors, the classic protein kinase A/cAMP-dependent protein kinase (PKA/cAPK) and the more recently discovered exchange protein directly activated by cAMP/cAMP-regulated guanine nucleotide exchange factor (EPAC/cAMP-GEF). Both PKA and EPAC are ubiquitously expressed in all tissues, and an increase in intracellular cAMP levels will lead to the activation of both PKA and EPAC. Therefore, careful dissections of the individual role and relative contribution of EPAC and PKA within the overall cAMP signaling in various model systems are critical for further elucidating the mechanism of cAMP signaling. To date no EPAC-specific antagonists and agonist, as well as isoform-specific agonists have been reported, and developing EPAC-specific pharmacological probes to determine the physiological functions that EPAC play in the overall cAMP-mediated signaling remains a major challenge within the research field. Furthermore, identified regulators of EPAC may lead to new mechanism-based therapeutic strategies specifically targeting the EPAC / cAMP-signaling components as EPAC has been implicated to play important roles in major human pathological conditions such as diabetes, heart disease, and cancer.
This qHTS will be used to screen the Molecular Libraries Small Molecule Repository (MLSMR) as a concentration-titration series using the NCGC unique quantitative screening (qHTS) platform to find activators for EPAC1. In addition, this assay will also be used as a counterscreen for the EPAC2 qHTS. This fluorescent based assay is developed and validated for EPAC1 that measures exchange using EPAC effector Rap1 complex with BODIPY-GDP, a GDP analog with a tethered fluorophores. Activators are identified by monitoring the change in fluorescence signal as the exchanged free BODIPY-GDP has a reduced fluorescence compared to Rap1-bound BODIPY-GDP. Increase in signal (activation) is the desired outcome for the EPAC1 agonist while no activity in this assay is desired for the EPAC2 agonist counterscreen.
[1] de Rooij, J., Zwartkruis, F. J., Verheijen, M. H., Cool, R. H., Nijman, S. M., Wittinghofer, A., and Bos, J.L. (1998) Nature 396, 474-477.
Briefly, three uL of reagents (100 nM EPAC2, 250 nM RAP1B-BODIPY-GDP, 50 uM GDP) were dispensed into a 1536-well Greiner black solid-bottom medium binding assay plate. Controls and test compounds (23 nL) were transferred to the plate via a Kalypsys pin tool equipped with a 1536-pin array. The plates were centrifuged at 1,000 rpm for 15 seconds followed by 5 minute incubation at room temperature. The assay plates were read at 5 minute intervals for 30 minutes in the ViewLux plate reader using 480nm excitation and 540nm emission filters. The results were normalized to the agonist positive control of 6.5 mM cAMP.
% is scaled to controls: 0 for no effect and ±100 for the full control effect.

Compound | activation
c1csc(CN2CCC3(CCNCC3)CC2)n1 | inactive: 1.44%
CN1CCC2=C[C@@H](O)[C@@H]3OC(=O)c4cc5c(cc4C3C21)OCO5 (some centres not stated) | inactive: 3.16%
C[C@]12CC[C@H]3[C@@H](CCC4=CC(=O)CC[C@@H]43)[C@@H]1CC[C@@H]2O | inactive: -6.41% and inactive: 6.99%
COc1ccc2c(c1)c(CCN1CCOCC1)c(C)n2C(=O)c1cccc(Cl)c1Cl | inactive: 10.2%
Oc1ccc2c3c1O[C@H]1c4oc5ccccc5c4C[C@@]4(O)C(C2)N(CC2CC2)CC[C@]314 | inactive: 7.59%
C=CCN1C[C@@H](C)N([C@H](c2ccc(C(=O)N(CC)CC)cc2)c2cccc(OC)c2)C[C@@H]1C | inactive: -40.9%
Nc1ncn[nH]1 | inactive: -26.4%
COc1ccc(CN2CCNCC2)c(OC)c1OC | inactive: -16.1%
Cc1c(C(=O)c2ccc3ccccc3c2)c2cccc3c2n1[C@H](CN1CCOCC1)CO3 | inactive: 10.7%
C=CCC1([C@@H](C)CCC)C(=O)NC(=O)NC1=O | inactive: 0.0885%
CC(C)NC[C@H](O)c1ccc(N)c(C#N)c1 | inactive: -4.67%
CCCN(CCC)CCc1c[nH]c2ccc(C(N)=O)cc12 | inactive: 2.39% and inactive: -2.39%
CCN1C[C@]2(COC(=O)c3ccccc3N3C(=O)CC(C)C3=O)CC[C@H](OC)[C@@]34C5C[C@@H]6[C@@H](OC)C[C@@](O)(C5[C@H]6OC)[C@](O)([C@@H](OC)C23)[C@@H]14 (some centres not stated) | inactive: 1.62%
CC(C)(N)Cc1ccc(Cl)cc1 | inactive: -4.69%
CN(C)C1C(=O)C(C(N)=O)=C(O)[C@@]2(O)C(=O)C3=C(O)c4c(O)ccc(Cl)c4[C@](C)(O)C3CC12 (some centres not stated) | inactive: -30.1%
CC(C)=CCCC1(C)C=Cc2c(O)c3c(c(CC=C(C)C)c2O1)OC12C(CC4CC1C(C)(C)OC2(C/C=C(/C)C(=O)O)C4O)C3=O (configuration not stated) | inactive: -37.5%
c1ccc2c(N3CCNCC3)cccc2c1 | inactive: 3.65% and inactive: 7.93%
CCCCNCC(O)c1ccc(O)cc1 (configuration not stated) | inactive: -4.86%
CN(C)CCO | inactive: 9.23%
COCCOCCO | inactive: -12.8%
c1cc(N2CCCC3(CCNCC3)C2)ccn1 | inactive: -8.13%

Compound | activation
CCCCC(CC)COC(=O)c1ccccc1C(=O)OCC(CC)CCCC (configuration not stated) | inactive: -2.29%
O=C1C[C@@H]2OCC=C3CN4CC[C@]56c7ccccc7N1[C@H]5[C@H]2[C@H]3C[C@H]46 (tested in a mixture with another compound) | inactive: -10.4% and inactive: -4.16%
CCCCc1ccc(C(=O)O)nc1 | inactive: -18.6% and inactive: 13.1% and inactive: -18.5%
N[C@@H](Cn1ccc(=O)n(Cc2ccc(C(=O)O)cc2)c1=O)C(=O)O | inactive: 4.54%
COc1cc(OC)c2c(c1)OC(c1ccc(OC)c(OC)c1)C(O)C2 (configuration not stated) | inactive: -3.17%
Oc1ccc(Cl)cc1Cc1ccccc1 | inactive: -15.3% and inactive: -39.9%
CC(C)N1C(=O)c2ccccc2NS1(=O)=O | inactive: -9.84%
COc1ccc2c(c1O)-c1c(OC)c(OC)cc3c1[C@@H](C2)N(C)CC3 | inactive: 2.97%
Oc1ccc2c3c1O[C@H]1c4[nH]c5c(c4C[C@@]4(O)[C@@H](C2)N(CC2CC2)CC[C@]314)C[C@@]1(O)[C@H]2Cc3ccc(O)c4c3[C@@]1(CCN2CC1CC1)[C@H]5O4 | inactive: 5.82% and inactive: 3.06%
CC[C@]1(O)C(=O)OCc2c1cc1n(c2=O)Cc2cc3ccccc3nc2-1 | inactive: -9.89%
CCC1(c2ccccc2)CCC(=O)NC1=O (configuration not stated) | inactive: -6.25%
c1cc2ccc3cccc4ccc(c1)c2c34 | inactive: 5.47%
COc1ccc2c3c1O[C@H]1[C@@H](O)C=C[C@H]4[C@@H](C2)N(C)CC[C@@]341 | inactive: 6.77%
C[C@@H]([C@H](O)c1ccccc1)N(C)C | inactive: -10.1%
N#Cc1ccc(CN2CC[C@@]3(CCCN(C(=O)Oc4ccccc4)C3)C2)cc1 | inactive: -14.9%
CC1=C2CCC3C4CCC(=O)[C@@]4(C)CCC3[C@]2(C)CCC1=O (some centres not stated) | inactive: -0.0392%
OC[C@@H]1CCCN2CCCC[C@@H]12 | inactive: 2.43%
COc1cc(CC(C)N)cc(OC)c1OC (configuration not stated) | inactive: 12.8%
Cc1ccc(Cl)c(O)c1 | inactive: -31.8%
COc1ccc2[nH]cc(CCN(C(C)C)C(C)C)c2c1 | inactive: -8.55%
CN1C[C@@H](NS(=O)(=O)N(C)C)C[C@@H]2c3cccc4c3c(cn4C)C[C@H]21 | inactive: -11.5%
